# In the antibiotic and cytotoxicity screens of Wong et al. (2023):
# This is one part of the list.
# Experiments:
# HSkMC = human skeletal muscle cells; experiment: cytotoxicity call (relative viability < 0.9); conditions: 10 µM
# HepG2 = experiment: cytotoxicity call (relative viability < 0.9); conditions: 10 µM
# S. aureus RN4220 = experiment: growth inhibition call (relative growth <= 0.2); conditions: 50 µM
Compound,cytotoxicity call (HSkMC),cytotoxicity call (HepG2),growth inhibition call (S. aureus RN4220)
C[C@H]1CN([C@@H](C)CO)C(=O)c2cc(NC(=O)c3ccncc3)ccc2O[C@@H]1CN(C)C(=O)Nc1ccc2c(c1)OCO2,inactive,inactive,inactive
Cc1cc(C(=O)Nc2cccc3c2O[C@@H](CN(C)S(=O)(=O)c2ccc(Cl)cc2)[C@H](C)CN([C@@H](C)CO)C3=O)n(C)n1,inactive,inactive,inactive
CCCNC(=O)N(C)C[C@@H]1Oc2cc(-c3ccc(C)cc3)ccc2S(=O)(=O)N([C@@H](C)CO)C[C@@H]1C,inactive,inactive,inactive
Cc1noc(C)c1NC(=O)N(C)C[C@H]1Oc2ccc(NS(=O)(=O)c3ccccc3)cc2CC(=O)N([C@H](C)CO)C[C@@H]1C,inactive,inactive,inactive
Cc1noc(C)c1NC(=O)Nc1ccc2c(c1)C(=O)N([C@@H](C)CO)C[C@@H](C)[C@@H](CN(C)C(=O)Nc1ccc(C(F)(F)F)cc1)O2,inactive,inactive,active
C[C@@H]1CN([C@H](C)CO)C(=O)c2cc(NS(=O)(=O)c3cccs3)ccc2O[C@@H](C)CCCCO[C@@H]1CN(C)Cc1ccccc1,inactive,inactive,inactive
Cc1noc(C)c1NC(=O)N(C)C[C@H]1OCCCC[C@H](C)Oc2ccc(NC(=O)NC3CCCCC3)cc2C(=O)N([C@H](C)CO)C[C@@H]1C,inactive,inactive,inactive
C[C@H](CO)N1C[C@H](C)[C@@H](CN(C)S(=O)(=O)c2ccc(F)cc2)Oc2ncc(Br)cc2C1=O,inactive,inactive,inactive
C[C@@H]1CCCCO[C@H](CN(C)C(=O)Cc2ccccc2)[C@H](C)CN([C@@H](C)CO)C(=O)c2cc(NC(=O)Cc3ccccc3)ccc2O1,inactive,inactive,inactive
C[C@H]1CN([C@@H](C)CO)C(=O)c2cccc(NS(=O)(=O)c3cccs3)c2O[C@H]1CN(C)CC1CC1,inactive,inactive,inactive
C[C@@H]1CCCCO[C@H](CN(C)S(=O)(=O)c2ccccc2)[C@@H](C)CN([C@@H](C)CO)C(=O)c2cc(NC(=O)NC3CCCCC3)ccc2O1,inactive,inactive,inactive
COc1ccc(NC(=O)Nc2ccc3c(c2)CC(=O)N([C@H](C)CO)C[C@@H](C)[C@@H](CN(C)C(=O)Nc2cccc4ccccc24)O3)cc1,inactive,inactive,inactive
C[C@@H]1CN([C@H](C)CO)C(=O)c2cc(NS(C)(=O)=O)ccc2O[C@@H]1CN(C)S(=O)(=O)c1cn(C)cn1,inactive,inactive,inactive
C[C@H]1CN([C@@H](C)CO)C(=O)Cc2cc(NS(=O)(=O)c3ccc(Cl)cc3)ccc2O[C@H]1CN(C)C,inactive,inactive,inactive
C[C@H](CO)N1C[C@H](C)[C@@H](CN(C)C(=O)c2ccc(F)cc2)Oc2cc(Br)ccc2S1(=O)=O,inactive,inactive,inactive
COc1ccc(S(=O)(=O)N(C)C[C@H]2Oc3ncc(Br)cc3C(=O)N([C@@H](C)CO)C[C@@H]2C)cc1,inactive,inactive,inactive
C[C@H]1CN([C@@H](C)CO)C(=O)c2cccc(NC(=O)Nc3ccccc3)c2O[C@H]1CN(C)S(C)(=O)=O,inactive,inactive,inactive
Cc1ccc(S(=O)(=O)N(C)C[C@H]2Oc3c(NS(C)(=O)=O)cccc3C(=O)N([C@@H](C)CO)C[C@@H]2C)cc1,inactive,inactive,inactive
Nc1[nH]ncc1-c1cc(Cl)ccc1Oc1cc(F)c(S(=O)(=O)Nc2cscn2)cc1Cl,inactive,inactive,inactive

Compound,cytotoxicity call (HSkMC),cytotoxicity call (HepG2),growth inhibition call (S. aureus RN4220)
Cc1cc(C(=O)N2[C@@H]3CC[C@@H](C3)[C@H]2c2nc3cccc(OCc4ccc(F)cc4)c3[nH]2)n(C(C)(C)C)n1,inactive,inactive,inactive
C[C@H](CO)N1C[C@H](C)[C@@H](CN(C)Cc2ccc(C(F)(F)F)cc2)Oc2ccc(NC(=O)Nc3ccc(F)cc3)cc2CC1=O,active,active,inactive
C[C@H](CO)N1C[C@H](C)[C@H](CN(C)C(=O)CN(C)C)Oc2cc(-c3cncnc3)ccc2S1(=O)=O,inactive,inactive,inactive
Cc1ccc(S(=O)(=O)Nc2ccc3c(c2)C(=O)N([C@H](C)CO)C[C@H](C)[C@@H](CN(C)C(=O)Cc2ccccc2)OCCCC[C@@H](C)O3)cc1,inactive,inactive,inactive
C[C@@H]1CCCCO[C@H](CN(C)Cc2ccc(C(F)(F)F)cc2)[C@@H](C)CN([C@@H](C)CO)C(=O)c2cc(NS(=O)(=O)c3ccc(F)cc3)ccc2O1,inactive,inactive,inactive
O=C(O)C[C@@H]1C(=O)O[C@H]2[C@@H](OC(=O)c3cc(O)c(O)c(O)c3)[C@H](OC(=O)c3cc(O)c(O)c4c3[C@H]1[C@H](O)C(=O)O4)[C@H](OC(=O)c1cc(O)c(O)c(O)c1)O[C@@H]2COC(=O)c1cc(O)c(O)c(O)c1,inactive,active,inactive
COCC(=O)Nc1ccc2c(c1)OC[C@@H](C)N(C(=O)Cc1cccnc1)C[C@@H](C)[C@H](OC)CN(C)C2=O,inactive,inactive,inactive
CN1C[C@@H](O)COC[C@H]2O[C@H](CC(=O)N3CCN(c4ccccc4)CC3)CC[C@@H]21,inactive,inactive,inactive
O=C(Oc1ccccc1C(=O)O)c1ccccc1O,inactive,inactive,inactive
COc1ccc(NC(=O)N(C)C[C@H]2Oc3ccc(NS(=O)(=O)c4c(C)noc4C)cc3CC(=O)N([C@@H](C)CO)C[C@H]2C)cc1,inactive,inactive,inactive
Cc1cc(C(=O)Nc2cccc3c2O[C@@H](CN(C)C(=O)NC(C)C)[C@@H](C)CN([C@H](C)CO)C3=O)n(C)n1,inactive,inactive,inactive
Cc1noc(C)c1NC(=O)Nc1ccc2c(c1)CC(=O)N([C@@H](C)CO)C[C@H](C)[C@H](CN(C)S(=O)(=O)c1c(C)noc1C)O2,inactive,inactive,inactive
C[C@@H]1CN([C@@H](C)CO)C(=O)c2cc(C#CCN(C)C)cnc2O[C@@H]1CN(C)Cc1ccc2c(c1)OCO2,inactive,inactive,inactive
CCOC(=O)N(C)C[C@H]1OCc2cnnn2CCCC(=O)N([C@H](C)CO)C[C@H]1C,inactive,inactive,inactive
C[C@H](CO)N1C[C@H](C)[C@H](CN(C)Cc2ccc(C(F)(F)F)cc2)OCCCC[C@H](C)Oc2ccc(NC(=O)C3CCCCC3)cc2C1=O,inactive,inactive,inactive
Cc1ccc(S(=O)(=O)Nc2ccc3c(c2)CC(=O)N([C@H](C)CO)C[C@H](C)[C@@H](CN(C)S(=O)(=O)c2cccs2)O3)cc1,inactive,inactive,inactive
Cc1ccc(S(=O)(=O)N(C)C[C@H]2Oc3ccc(NC(=O)CCN4CCOCC4)cc3C(=O)N([C@H](C)CO)C[C@H]2C)cc1,inactive,inactive,inactive
C#CC[C@H](c1nc2cc(Cl)ccc2c(=O)n1Nc1ccccc1)N(CCCN)C(=O)c1cccc(Cl)c1F,active,active,active
